The list shows a part of the results.
What follows are compounds tested on HSkMC (human skeletal muscle cells) (assay: cytotoxicity call (relative viability < 0.9)). Conditions: 10 µM.
`C[C@@H]1CN([C@@H](C)CO)C(=O)Cc2cc(NC(=O)CCCCCC(=O)Nc3ccccc3N)ccc2O[C@@H]1CN(C)S(=O)(=O)c1cn(C)cn1` was tested, and the cytotoxicity call was “inactive”.
`Cc1noc(C)c1NC(=O)Nc1ccc2c(c1)C(=O)N([C@@H](C)CO)C[C@H](C)[C@H](CN(C)S(=O)(=O)c1cccs1)OCCCC[C@H](C)O2` was tested, and the cytotoxicity call was “inactive”.
For `C[C@@H]1CN([C@H](C)CO)S(=O)(=O)c2ccc(C3=CCCC3)cc2O[C@H]1CN(C)C(=O)C1CCOCC1`, the cytotoxicity call was “inactive”.
For `Nc1nonc1C(=O)N1CCCCC1`, the cytotoxicity call was “inactive”.
For `O=C(C[C@H]1CC[C@H]2[C@@H](COC[C@H](O)CN2C(=O)c2ccncc2)O1)NCc1ccc(-c2ccccc2)cc1`, the cytotoxicity call was “inactive”.
In the case of `COc1ccc([C@H]2[C@@H](C(N)=O)C2(C#N)C#N)cc1`, the cytotoxicity call is reported as “inactive”.
With `O=C(CCCCCCC(=O)Nc1ccc([C@H]2O[C@@H](CSc3ccncc3)C[C@@H](c3ccccc3)O2)cc1)NO` the cytotoxicity call was “inactive”.
For `COc1ccc(S(=O)(=O)Nc2ccc3c(c2)C(=O)N([C@@H](C)CO)C[C@H](C)[C@@H](CN(C)S(=O)(=O)c2ccc(C)cc2)O3)cc1`, the cytotoxicity call was “inactive”.
`Cc1nc(CSCc2ccc(Cl)cc2Cl)cs1` was tested, and the cytotoxicity call was “inactive”.
For `C[C@H]1CCCCO[C@@H](CN(C)C(=O)C2CCCCC2)[C@@H](C)CN([C@@H](C)CO)C(=O)c2cc(NS(=O)(=O)c3cccs3)ccc2O1`, the cytotoxicity call was “inactive”.
With `OC[C@H]1O[C@@H](S[C@@H]2O[C@H](CO)[C@H](O)[C@H](n3cc(-c4cccc(F)c4)nn3)[C@H]2O)[C@H](O)[C@@H](n2cc(-c3cccc(F)c3)nn2)[C@H]1O` the cytotoxicity call was “inactive”.
For `C[C@H](CO)N1C[C@H](C)[C@H](CN(C)S(=O)(=O)c2ccc(F)cc2)Oc2c(NS(=O)(=O)c3cn(C)cn3)cccc2C1=O`, the cytotoxicity call was “inactive”.
For `COC(=O)[C@@H]1CCCC1=O`, the cytotoxicity call was “inactive”.
For `CS(=O)(=O)Nc1ccc2c(c1)[C@@H]1C[C@@H](CC(=O)NCC3CC3)O[C@H](CO)[C@@H]1O2`, the cytotoxicity call was “inactive”.
With `C[C@@H]1CC[C@H](C)N1c1cc(C(F)(F)F)cc(C(F)(F)F)c1` the cytotoxicity call was “inactive”.
For `CC(C)NC(=O)N(C)C[C@@H]1Oc2c(NC(=O)C3CCCCC3)cccc2C(=O)N([C@H](C)CO)C[C@@H]1C`, the cytotoxicity call was “inactive”.
In the case of `COc1ccc(S(=O)(=O)Nc2ccc3c(c2)C(=O)N([C@H](C)CO)C[C@@H](C)[C@@H](CN(C)Cc2ccccc2)OCCCC[C@H](C)O3)cc1`, the cytotoxicity call is reported as “inactive”.
With `C[C@@H]1CCCCO[C@@H](CN(C)S(=O)(=O)c2ccc(Cl)cc2)[C@H](C)CN([C@H](C)CO)C(=O)c2cc(NC(=O)Nc3ccccc3)ccc2O1` the cytotoxicity call was “inactive”.
With `Cc1ccc(S(=O)(=O)Nc2ccc3c(c2)CC(=O)N([C@H](C)CO)C[C@@H](C)[C@H](CN(C)S(=O)(=O)c2ccc(F)cc2)O3)cc1` the cytotoxicity call was “inactive”.
In the case of `CC(C)NC(=O)Nc1ccc2c(c1)C(=O)N([C@@H](C)CO)C[C@H](C)[C@@H](CN(C)S(C)(=O)=O)OCCCC[C@H](C)O2`, the cytotoxicity call is reported as “inactive”.
`Cc1noc(C)c1NC(=O)Nc1ccc2c(c1)C(=O)N([C@H](C)CO)C[C@H](C)[C@H](CN(C)Cc1ccc(Cl)c(Cl)c1)O2` was tested, and the cytotoxicity call was “inactive”.
`CC(C)NC(=O)Nc1ccc2c(c1)C(=O)N([C@H](C)CO)C[C@@H](C)[C@H](CN(C)C(=O)NC1CCCCC1)O2` was tested, and the cytotoxicity call was “inactive”.
In the case of `C[C@@H]1CCCCO[C@H](CN(C)C(=O)Nc2ccc(C(F)(F)F)cc2)[C@H](C)CN([C@@H](C)CO)C(=O)c2cc(NS(=O)(=O)c3ccc(F)cc3)ccc2O1`, the cytotoxicity call is reported as “inactive”.
With `Cc1noc(C)c1NC(=O)N(C)C[C@@H]1Oc2ccc(NS(=O)(=O)c3cccs3)cc2CC(=O)N([C@@H](C)CO)C[C@H]1C` the cytotoxicity call was “inactive”.
`COc1ccc2c3c([nH]c2c1)[C@@H](CO)N(C[C@]13CCN(CC1)C(=O)c1ccncc1)C(=O)c1ccncc1` was tested, and the cytotoxicity call was “inactive”.
In the case of `Cc1ccc(S(=O)(=O)Nc2ccc3c(c2)C(=O)N([C@H](C)CO)C[C@@H](C)[C@H](CN(C)Cc2ccc(C(F)(F)F)cc2)O3)cc1`, the cytotoxicity call is reported as “active”.
`C[C@H](CO)N1C[C@H](C)[C@H](CN(C)C)OCCCC[C@H](C)Oc2ccc(NC(=O)Nc3ccc(C(F)(F)F)cc3)cc2C1=O` was tested, and the cytotoxicity call was “inactive”.
For `COCC#Cc1ccc2c(c1)O[C@H](CN(C)C(=O)C1CCCCC1)[C@@H](C)CN([C@H](C)CO)S2(=O)=O`, the cytotoxicity call was “inactive”.
In the case of `COc1ccccc1C#Cc1cnc2c(c1)C(=O)N([C@H](C)CO)C[C@H](C)[C@H](CN(C)C(=O)c1ccc3c(c1)OCO3)O2`, the cytotoxicity call is reported as “inactive”.
In the case of `CCN(CC)CCOCCOC(=O)C(CC)(CC)c1ccccc1.O=C(O)CC(O)(CC(=O)O)C(=O)O`, the cytotoxicity call is reported as “inactive”.
In the case of `C[C@@H]1CCCCO[C@@H](CN(C)Cc2ccc(C(F)(F)F)cc2)[C@@H](C)CN([C@@H](C)CO)C(=O)c2cc(NC(=O)CCC(F)(F)F)ccc2O1`, the cytotoxicity call is reported as “inactive”.
For `CC(C)NC(=O)N(C)C[C@@H]1Oc2ccc(NC(=O)NC3CCCCC3)cc2C(=O)N([C@H](C)CO)C[C@H]1C`, the cytotoxicity call was “inactive”.
`Cc1ccc(S(=O)(=O)N(C)C[C@@H]2Oc3ncc(Br)cc3C(=O)N([C@H](C)CO)C[C@H]2C)cc1` was tested, and the cytotoxicity call was “inactive”.
For `C[C@@H]1CN([C@H](C)CO)C(=O)c2cccc(NC(=O)c3ccc(-c4nccs4)cc3)c2O[C@H]1CN(C)S(C)(=O)=O`, the cytotoxicity call was “inactive”.
In the case of `COc1ccc(S(=O)(=O)Nc2ccc3c(c2)C(=O)N([C@H](C)CO)C[C@@H](C)[C@@H](CN(C)Cc2ccc4c(c2)OCO4)OCCCC[C@H](C)O3)cc1`, the cytotoxicity call is reported as “inactive”.
For `CC1=CC(=O)C2=C(C)CCC3C(C)C(=O)OC3C12` (stereo not given), the cytotoxicity call was “inactive”.
With `Cc1noc(C)c1NC(=O)Nc1ccc2c(c1)C(=O)N([C@@H](C)CO)C[C@@H](C)[C@H](CN(C)Cc1ccc(Cl)c(Cl)c1)O2` the cytotoxicity call was “inactive”.
For `O=c1cc(CO)occ1O`, the cytotoxicity call was “inactive”.
`C[C@@H]1CN([C@@H](C)CO)S(=O)(=O)c2ccc(C#CCC3CCCC3)cc2O[C@@H]1CN(C)C(=O)CN(C)C` was tested, and the cytotoxicity call was “inactive”.
With `C[C@@H]1CN([C@H](C)CO)C(=O)c2cc(NC(=O)Nc3ccccc3)ccc2O[C@@H](C)CCCCO[C@H]1CN(C)S(=O)(=O)c1cccs1` the cytotoxicity call was “inactive”.

— the antibiotic and cytotoxicity screens of Wong et al. (2023)
